# Measured values: PMC4336329 (PLoS ONE, 2015)
# The whole screen tested about 310,000 compounds, of which about 14,000 (4.5%) showed an effect of 50% or more. Effects have a minus sign here. This is one part of the list.
# Molecular target: human ether-à-go-go-related gene (hERG) potassium channel (human, UniProt Q12809)
# Test: primary screen, population patch clamp on CHO cells stably expressing hERG
# 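Also: peak tail current of the secondary pulse compared with the same well before compound.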
# human ether-à-go-go-related gene (hERG) potassium channel, sequence (Q12809 whole entry, looked up): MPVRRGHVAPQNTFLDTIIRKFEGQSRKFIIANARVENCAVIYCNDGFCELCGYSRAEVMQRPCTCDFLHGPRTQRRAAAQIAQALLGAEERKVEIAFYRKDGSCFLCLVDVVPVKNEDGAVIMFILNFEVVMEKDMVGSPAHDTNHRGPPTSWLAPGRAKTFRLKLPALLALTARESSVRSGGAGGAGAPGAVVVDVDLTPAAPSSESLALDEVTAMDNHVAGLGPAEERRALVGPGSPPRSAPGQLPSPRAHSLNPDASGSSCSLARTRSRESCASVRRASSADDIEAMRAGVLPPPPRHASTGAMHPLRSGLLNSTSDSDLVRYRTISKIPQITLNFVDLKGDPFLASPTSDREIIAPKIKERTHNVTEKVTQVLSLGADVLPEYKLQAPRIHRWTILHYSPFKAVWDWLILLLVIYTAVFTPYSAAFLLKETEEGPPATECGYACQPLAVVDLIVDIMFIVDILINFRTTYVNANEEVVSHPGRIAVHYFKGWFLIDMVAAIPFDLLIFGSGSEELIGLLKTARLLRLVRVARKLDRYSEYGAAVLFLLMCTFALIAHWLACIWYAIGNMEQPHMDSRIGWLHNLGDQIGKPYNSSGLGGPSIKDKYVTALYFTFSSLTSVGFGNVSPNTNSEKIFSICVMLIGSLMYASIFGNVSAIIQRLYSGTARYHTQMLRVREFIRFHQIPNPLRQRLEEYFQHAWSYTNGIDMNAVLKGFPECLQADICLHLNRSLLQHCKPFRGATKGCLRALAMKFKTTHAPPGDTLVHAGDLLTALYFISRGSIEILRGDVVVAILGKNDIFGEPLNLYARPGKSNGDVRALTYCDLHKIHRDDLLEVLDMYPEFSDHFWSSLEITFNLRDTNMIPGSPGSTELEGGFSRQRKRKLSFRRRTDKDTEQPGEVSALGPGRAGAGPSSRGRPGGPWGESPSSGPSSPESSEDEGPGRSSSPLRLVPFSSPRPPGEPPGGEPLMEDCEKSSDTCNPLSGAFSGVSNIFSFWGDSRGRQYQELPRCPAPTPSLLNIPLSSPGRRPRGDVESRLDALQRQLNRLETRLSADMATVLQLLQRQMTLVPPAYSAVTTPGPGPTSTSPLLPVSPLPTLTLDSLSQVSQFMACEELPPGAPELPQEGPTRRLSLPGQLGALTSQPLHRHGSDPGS
row,SMILES,"hERG current change (%, negative = inhibition) at 10uM"
1,CN(C(=O)COC(=O)c1cnc(Cl)c(Cl)c1)C1CCS(=O)(=O)C1 (stereo not drawn),2.87%
2,CCN(CC)C(=O)c1ccc(NC(=O)c2ccc(-c3nn(C)c(=O)c4ccccc34)cc2)cc1,8.63%
3,CCC(c1nnc(SCC(=O)N2CC3(C)CC2CC(C)(C)C3)o1)N(C)C (stereo not drawn),4.96%
4,O=C(Nc1nc(-c2ccco2)c(-c2ccco2)s1)C1CC(=O)N(c2ccc3c(c2)OCCO3)C1 (stereo not drawn),-3.9%
5,Cc1cc2c(=O)oc(-c3ccc(F)cc3)nc2s1,23.3%
6,N=C1C(c2nc(-c3ccc(F)cc3)cs2)=C(O)CN1Cc1ccc(Cl)cc1,2.83%
7,Nn1c(SCC(=O)N2CCCc3ccccc32)nncc1=O,6.33%
8,COc1ccccc1N1CCN(C(=O)c2ccco2)CC1,16.5%
9,O=C(O)c1ccccc1-c1ccccc1C(=O)Nc1ccc2c(c1)CCC2,16.8%
10,CC(C)c1ccccc1NC(=O)Cn1c(-c2ccccc2Cl)nc2ccccc21,-15.1%
11,COc1ccccc1N/C(=N/S(=O)(=O)c1ccc(C)cc1)c1ccccc1,-31%
12,CCS(=O)(=O)NCc1ccc2c(c1)cc(C)n2C,12.4%
13,COc1cccc(C(=O)N2CCN(Cc3ccccc3[N+](=O)[O-])CC2)c1,-14.5%
14,COc1c(O)ccc(/C=C(\C#N)c2nc3ccccc3[nH]2)c1[N+](=O)[O-],-0.111%
15,O=c1cccc2n1CC1CC2CN(S(=O)(=O)c2ccc(F)cc2)C1 (stereo not drawn),12.1%
16,Cc1c(Cl)c(C(=O)NC2C3CC4CC(C3)CC2C4)nn1C (stereo not drawn),-9.28%
17,O=C(CN1CCN(c2ccccn2)CC1)Nc1cc(F)ccc1F,-26%
18,O=C1C=CC(=O)N1c1ccc(Sc2ccc([N+](=O)[O-])cc2)cc1,4.77%
19,Cc1cc(C)c(S(C)(=O)=O)c(N(C)N)n1,21.8%
20,Cc1ccc(S(=O)(=O)Nc2cc(C(=O)NCCN(C)C)ccc2N2CCCCC2)cc1,-36.8%
21,O=C(Cc1ccc([N+](=O)[O-])cc1)c1c(O)cc(O)cc1O,-0.546%
22,COc1ccc(C(=O)OCC(=O)c2cc(C)n(CC3CCCO3)c2C)cc1[N+](=O)[O-] (stereo not drawn),-42.9%
23,Nc1c(C(=O)CSc2n[nH]c(-c3ccccc3Br)n2)c(=O)[nH]c(=O)n1C1CC1,7.8%
24,COc1cc(-c2c(NC(=O)c3ccco3)oc3ccccc3c2=O)cc(OC)c1OC,8.23%
25,O=C(CSc1nnnn1-c1ccccc1)NC1CCCc2ccccc21 (stereo not drawn),-9.9%
26,COCCNC(=O)c1cc(-c2ccccc2OC)on1,-2.42%
27,CC(=O)c1cc2c(cc1NC(=O)Cn1nc(C)c(C)c(C#N)c1=O)OCO2,-6.83%

row,SMILES,"hERG current change (%, negative = inhibition) at 10uM"
1,CCCn1nc(NC(=O)C(C)(C)C)c2cc3cc(OC)ccc3nc21,-31.5%
2,Cc1ccc(-c2nnc3n2N=C(c2ccccc2Br)CS3)cc1,-1%
3,O=C(NCc1cccs1)C1CCCN(C(=O)Nc2ccc(F)cc2)C1 (stereo not drawn),-16.9%
4,CCCC(=O)Nc1cc2c3c(c1)CCN3C(=O)CC2,25.8%
5,COC(=O)C(CCCCNC(=O)c1ccc([N+](=O)[O-])cc1)NC(=O)c1ccc([N+](=O)[O-])cc1 (stereo not drawn),-76.3%
6,CCOc1cc(NC(=O)C2CC2)c(OCC)cc1NC(=O)c1ccccn1,-9.6%
7,CO/N=C/c1ccc(N2CCN(C(=O)c3ccc(F)cc3)CC2)c([N+](=O)[O-])c1,-78.3%
8,CCOc1c(Br)cc(CNCc2cccs2)cc1OC.Cl,-25.6%
9,CCC(=O)N1CCN(c2ccc(Cl)cc2NC(=O)Cc2ccccc2)CC1,-46.3%
10,CCc1nnc(NC(=O)CSc2ccc(-c3ccccc3OC)nn2)s1,-7.08%
11,CC(C)CCCN1C(N(C)C)=NC[C@@H]1C,-1.76%
12,CN(C(=O)C1CCC(=O)N(CCc2ccc(Cl)cc2)C1)C1CCOCC1 (stereo not drawn),10.7%
13,COc1cccc(-c2noc(-c3ccc(Cl)nc3)n2)c1,21.9%
14,Cc1cc(C)c(N=C2CCCN2Cc2ccccc2)c(C#N)c1,-12.8%
15,CCOc1ccc(Cn2c(=O)oc3ccc(C)cc32)cc1OC,12.8%
16,CC1=C(C(=O)OCc2ccccc2)C(c2ccccc2Cl)NC(=O)N1CCCC(=O)O (stereo not drawn),6.84%
17,CC(Oc1ccc2c(-c3ccccc3)cc(=O)oc2c1)C(=O)NCC(O)c1ccccc1 (stereo not drawn),-13%
18,CC1=C(C(=O)OCc2ccccc2)C(c2ccc(C)o2)C2=C(CCCC2=O)N1 (stereo not drawn),-23.7%
19,CC(NC(=O)c1ccc(NC(=O)CC2SC(N3CCCC3)=NC2=O)cc1)c1ccc(S(N)(=O)=O)cc1 (stereo not drawn),15.3%
20,COc1ccc(/C=C/C(=O)Nc2cc(F)ccc2C)cc1S(=O)(=O)N1CCOCC1,-2.78%
21,COC(=O)c1ccccc1NS(=O)(=O)c1ccc(O)c(C(=O)O)c1,-11.6%
22,CC1OC(Oc2ccc3ccc(=O)oc3c2-c2c(O)ccc3cc(Oc4ccc5ccc(=O)oc5c4)c(=O)oc23)C(O)C(O)C1O (stereo not drawn),4.52%
23,COc1ccc(N2CC(C(=O)N3CCN(C(=O)c4ccco4)CC3)CC2=O)cc1 (stereo not drawn),-53.3%
24,COc1ccc(C(=O)CC(=O)C(=O)Nc2ccccc2Cl)cc1,11%
25,Cc1ccc(C)c(C(=O)Cn2ncc(Cl)c(Cl)c2=O)c1,8.24%
26,O=C(C1=C[C@H](c2coc3ccccc3c2=O)C[C@H](OCCCCO)O1)N1CCN(Cc2ccccc2)CC1,-61.5%
27,Cc1ccc(C(=O)NCCCn2ccnc2)cc1[N+](=O)[O-],4.53%
